Out of some 230,000 compounds screened, about 3,600 (1.6%) were called active. This list was built around the results that the source calls inconclusive (neither active nor inactive); the mix of calls is not that of the screen. Calls follow the shape of the dose curve; as a rule, active = well fitted inhibition curve with a large enough effect (not every such curve was filed as active); inconclusive = small, poorly fitted or top-dose-only effect, or another doubt; inactive = no such curve, though single readings can be large or run the other way. Potencies beside an inconclusive call are fits to weak or partial responses and may not hold up.
Each compound was assayed against Lysine-specific demethylase 4E (Homo sapiens) (UniProt B2RXH2) (assay: qHTS Assay for Inhibitors of Human Jumonji Domain Containing 2E (JMJD2E)). Details: JMJD2E catalytic domain, FDH-coupled NADH fluorescence (FDH is formaldehyde dehydrogenase); series mostly up to 57.1 µM.
Also: nearly all actives have a fitted effect of over 50% in size.
Potency is read from the fitted curve at half-maximal effect; tags tell the direction and shape of the fitted curve.

Sequence of UniProt B2RXH2 (B2RXH2 whole entry, looked up, the tested form may be a part): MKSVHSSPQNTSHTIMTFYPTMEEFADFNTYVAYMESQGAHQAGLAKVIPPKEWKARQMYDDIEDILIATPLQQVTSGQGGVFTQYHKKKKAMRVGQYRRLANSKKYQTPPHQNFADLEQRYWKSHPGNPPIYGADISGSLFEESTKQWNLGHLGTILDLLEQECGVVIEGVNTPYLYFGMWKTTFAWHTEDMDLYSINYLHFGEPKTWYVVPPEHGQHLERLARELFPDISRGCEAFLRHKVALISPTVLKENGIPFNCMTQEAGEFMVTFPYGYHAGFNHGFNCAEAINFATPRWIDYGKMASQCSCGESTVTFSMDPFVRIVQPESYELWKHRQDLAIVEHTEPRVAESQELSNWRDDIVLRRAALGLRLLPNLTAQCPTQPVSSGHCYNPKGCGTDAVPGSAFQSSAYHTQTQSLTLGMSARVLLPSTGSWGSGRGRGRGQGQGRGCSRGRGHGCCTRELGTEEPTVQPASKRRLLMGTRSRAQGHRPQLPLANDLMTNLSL

Compound	Potency
COc1ccc(OC)c(-c2nc3c(C)n[nH]c(=O)c3[nH]2)c1	inconclusive: 39.8 µM [inhibitor, single point]
COc1ccc(NC(=S)NNC(=O)Cn2nc([N+](=O)[O-])cc2C)cc1	inactive
C[C@@]12CC[C@H]3[C@@H](CCC4=CC(=O)CC[C@]43C)[C@H]1CC[C@H]2C(=O)CO	inactive
O=C(/C=C/c1ccncc1)c1ccc2c(c1)OCCO2	inactive
O=C(Nc1nc(-c2ccco2)c(-c2ccco2)s1)C1CCC1	inconclusive: 20 µM [inhibitor, partial curve]
CN1C(=O)C(O)(CC(=O)/C=C/c2ccco2)c2cc(Br)ccc21 (stereo not given)	inconclusive: 31.6 µM [inhibitor, single point]
COC(=O)c1ccc(N2C(=O)c3ccc(OC)c(OC)c3C2=O)cc1	inconclusive: 28.2 µM [inhibitor, single point]
CCOc1ccc(C2C(C#N)=C(C)NC3=C2C(=O)c2ccccc23)cc1 (stereo not given)	inconclusive: 39.8 µM [inhibitor, single point]
COc1cc(O)c(/C=N/NC(=O)c2ccncc2)c(OC)c1[N+](=O)[O-]	active: 22.4 µM
COc1ccc(C(=O)/C=C/c2ccccc2)c(OC)c1	inactive
CCOc1ccc(S(=O)(=O)Nc2cc(Cl)ccc2O)cc1	inactive
COc1ccccc1N(CC(=O)N/N=C/c1c(O)ccc2ccccc12)S(C)(=O)=O	inconclusive: 31.6 µM [inhibitor, single point]
CCOC(=O)c1oc2ccccc2c1N	inconclusive: 25.1 µM [inhibitor, partial curve]
Cc1nccc(-c2cccc(NC(=O)c3ccccc3Cl)c2)n1	inactive
Cc1nccn1-c1ccc(C=O)cc1	inactive
COc1ccc(-c2nc(-c3cccc(C)c3)no2)cc1OC	inconclusive: 39.8 µM [inhibitor, single point]
Cc1ccc(S(=O)(=O)N2CCN(C(=O)c3cc(=O)[nH]c4ccccc34)CC2)c(C)c1	inconclusive: 39.8 µM [inhibitor, single point]
COC(=O)[C@@H]1C[C@H]1[C@@H](NS(=O)(=O)c1ccc(-c2ccccc2)cc1)c1ccccc1	inactive
O=C(NCc1ccco1)c1cc2cc3ccc(Cl)cc3nc2o1	inconclusive: 10 µM [inhibitor, partial curve]
Fc1ccc2[nH]c3c(N4CCN(c5ccccc5)CC4)ncnc3c2c1	inconclusive: 39.8 µM [inhibitor, single point]
CCc1cc(=O)oc2c(C)c(OCC(=O)N3CCCc4ccccc43)ccc12	inconclusive: 35.5 µM [inhibitor, single point]
CCc1nc(N)c(C#N)c(-c2ccncc2)c1C	inconclusive: 39.8 µM [inhibitor, single point]
CCN(CC)C(=O)CC(c1ccc(OC)cc1)c1c(OC)cc(OC)c2ccc(=O)oc12 (stereo not given)	inconclusive: 35.5 µM [inhibitor, single point]

Compound	Potency
Cc1ccc(O)c(N=Cc2cc(Cc3ccccc3)cc([N+](=O)[O-])c2O)c1	active: 28.2 µM
Fc1ccc(-c2nc3ccccn3c2NCc2ccc3c(c2)OCO3)cc1	inconclusive: 35.5 µM [inhibitor, partial curve]
COc1ccc2[nH]c(=O)c(CN(C(=O)c3ccccn3)C3CCCCC3)cc2c1	inconclusive: 31.6 µM [inhibitor, partial curve]
COc1ccccc1N1CCN(C(=O)CSc2ncnc3c2cnn3-c2ccc(C)c(C)c2)CC1	inconclusive: 28.2 µM [inhibitor, partial curve]
NS(=O)(=O)c1ccc(CCNC(=O)c2cc(-c3ccc(Br)cc3)nc3ccccc23)cc1	inconclusive: 28.2 µM [inhibitor, single point]
COc1cc(C(=O)Oc2c(CN3CCOCC3)cc(Cl)c3cccnc23)cc(OC)c1OC	inconclusive: 25.1 µM [inhibitor, single point]
COc1ccc2c(c1)-c1nc(/N=C/c3cccc(OC)c3O)sc1CC2	inactive
Clc1cccc(-c2nc3nc4ccccc4nc3n2Cc2ccco2)c1	inconclusive: 35.5 µM [inhibitor, partial curve]
COc1ccc2nc(C)cc(N3CCC(C(N)=O)CC3)c2c1	inactive
CC1CCC(NC(=O)CN2C(=O)C3CCCN3c3ncc(Cl)cc32)CC1 (stereo not given)	inconclusive: 35.5 µM [inhibitor, partial curve]
O=C(O)/C=C/C(=O)N(Cc1ccccc1)Cc1ccco1	inactive
CCOc1ccc2noc3c2c1C(=O)c1ccccc1-3	inconclusive: 1.41 µM [inhibitor, full curve]
COc1cccc(Nc2nc3ccccc3nc2NS(=O)(=O)c2cccs2)c1	inconclusive: 20 µM [inhibitor, partial curve]
COC(=O)c1c(NC(=O)COC(=O)CNC(=O)C2CCCCC2)sc(C)c1C	inconclusive: 35.5 µM [inhibitor, single point]
O=C(Cn1nnc(-c2ccc(S(=O)(=O)N3CCCC3)cc2)n1)Nc1ccccc1-n1cccc1	inactive
CCOc1ccccc1N1CCN(Cc2ccc(OC)c(OC)c2)CC1	inconclusive: 35.5 µM [inhibitor, single point]
COc1ccc(Cn2c(=O)[nH]c3cc(OC)c(OC)cc3c2=O)cc1	inconclusive: 22.4 µM [inhibitor, partial curve]
COc1ccc(C(C)=O)cc1COC(=O)c1cc(C)oc1C	inactive
CC(C)n1cnc2c(Nc3cccc(Cl)c3)nc(NCCCO)nc21	inconclusive: 35.5 µM [inhibitor, single point]
O=C1C=C(NNC(=O)c2ccncc2)CC(c2ccccc2)C1 (stereo not given)	inconclusive: 39.8 µM [inhibitor, single point]
COc1ccc(Cl)cc1Nc1nc(-c2sc(NC(=O)CC(C)C)nc2C)cs1	inconclusive: 25.1 µM [inhibitor, single point]
COc1ccc(-c2csc(-c3cccs3)n2)cc1OC	inconclusive: 35.5 µM [inhibitor, single point]

— PubChem BioAssay AID2147 (National Center for Advancing Translational Sciences (NCATS), 2009)
